From patent US20250326771A1, “PIPERAZINE DERIVATIVES USEFUL IN HIV THERAPY” (VIIV HEALTHCARE COMPANY, priority 2022, published 2025)
At least one structure is not confirmed: it was looked up by name or label, or the drawing left a doubt.

Experiments:
cIAP1-BIR3 = cIAP1-BIR3 (Homo sapiens (Human), UniProt Q13490); experiment: BIR binding assay (FRET competition), cIAP1 BIR3; details: fold separation (FS) for cIAP1
Protocol: (§1) The BIR domain binding assays are FRET based competition assays that utilize His-tagged versions of each of the BIR2 and BIR3 domains from cIAP1, cIAP2, and XIAP (each domain assayed separately) each at a custom optimal concentration and a probe, 200 nM SMAC/DIABLO peptide […] labelled with AlexaFluor647 (part #crb 1110326h, Discovery Peptides). The assay is conducted in 50 mM HEPES, […], 1 mM CHAPS, 5% Glycerol, 1 mM DTT, in dI water with a final pH of 7.4 and final volume of 20 uL. Final protein domain concentrations are: 50 nM cIAP1-BIR3 (Part #APT-11-370 Reaction Biology), 100 nM XIAP-BIR3 (Part #APT-11-351 Reaction Biology), 200 nM XIAP-BIR2 (Part #APT-11-470 Reaction Biology), 325 nM cIAP2-BIR2 (Part #APT-11-489 Reaction Biology), 50 nM cIAP2-BIR3 (Part #APT-11-372 Reaction Biology), 325 nM cIAP1-BIR2 (Part #APT-11-487 Reaction Biology). Compounds were plated using a HP Tecan D300 printer in a final total volume of 202 nl and DMSO concentration normalized across the 15-point, 3-fold dilution series. Peptide and probe were prepared at 2× relative to the concentrations above in binding buffer, 10 uL added to the prepared compound plates, and incubated for 60 minutes. LANCE Eu-W1024 (part #AD0401 Perkin Elmer #, vendor) was prepared at 2× concentration in binding buffer for final concentration of 2 nM, 10 uL added to each well, and plates incubated for 30 minutes. Plates were read on an ENVISION multifunction plate reader with […] laser excitation to obtain the 615 nm/665 nm emission ratio as indicative of probe:protein proximity. Data was analyzed using GraphPad PRISM and curves fit using log(inhibitor) vs. response—Variable slope (four […] method to obtain IC50 and pIC50 values.

cIAP2-BIR3 = cIAP2-BIR3 (Homo sapiens (Human), UniProt Q13489); experiment: BIR binding assay (FRET competition), cIAP2 BIR3; details: fold separation (FS) for cIAP2
Sequence of cIAP2-BIR3 (Q13489 238-349): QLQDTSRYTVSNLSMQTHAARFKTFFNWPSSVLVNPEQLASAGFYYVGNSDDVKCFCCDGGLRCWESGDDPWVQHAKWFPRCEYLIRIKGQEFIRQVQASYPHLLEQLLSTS
Protocol: as §1

XIAP-BIR3 = XIAP-BIR3 (Homo sapiens (Human), UniProt P98170); experiment: BIR binding assay (FRET competition), XIAP BIR3; details: fold separation (FS) for XIAP
Sequence of XIAP-BIR3 (P98170 241-356): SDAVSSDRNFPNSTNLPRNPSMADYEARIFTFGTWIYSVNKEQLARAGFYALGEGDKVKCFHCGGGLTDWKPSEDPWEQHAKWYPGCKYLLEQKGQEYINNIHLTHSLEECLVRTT
Protocol: as §1

Sequence of cIAP1-BIR3 (Q13490 253-363): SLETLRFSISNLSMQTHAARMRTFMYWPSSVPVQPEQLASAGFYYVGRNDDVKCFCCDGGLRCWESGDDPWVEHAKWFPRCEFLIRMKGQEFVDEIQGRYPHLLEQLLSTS

| SMILES | cIAP1 BIR3 vs BIR2 separation window (cIAP1-BIR3) | cIAP2 BIR3 vs BIR2 separation window (cIAP2-BIR3) | XIAP BIR3 vs BIR2 separation window (XIAP-BIR3) |
| --- | --- | --- | --- |
| C[C@@H]1CN(CC(=O)N2CC(C)(C)c3[nH]c(=O)c(Cc4ccc(F)cc4)cc32)[C@@H](CN2CCO[C@H](COc3cccc(OC[C@@H]4CN(C[C@H]5CN[C@H](C)CN5CC(=O)N5CC(C)(C)c6[nH]c(=O)c(Cc7ccc(F)cc7)cc65)CCO4)c3)C2)CN1 [Example 69, 1,1′-(2,2′-((3R,3′R,6R,6′R)-(((2S,2'S)-((1,3-phenylenebis(oxy))bis(methylene))bis(morpholine-2,4-diyl))bis(methylene))bis(3-methylpiperazine-6,1-diyl))bis(acetyl))bis(6-(4-fluorobenzyl)-3,3-dimethyl-1,2,3,4-tetrahydro-5H-pyrrolo[3,2-b]pyridin-5-one)] | +++ (10,000>FS>1,000) | +++ (10,000>FS>1,000) | ++++ (FS>10,000) |
| C[C@@H]1CN(CC(=O)N2CC(C)(C)c3[nH]c(=O)c(Cc4ccc(F)cc4)cc32)[C@@H](CN2CCN(C(=O)CCCCCCCCCCCCC(=O)N3CCN(C[C@H]4CN[C@H](C)CN4CC(=O)N4CC(C)(C)c5[nH]c(=O)c(Cc6ccc(F)cc6)cc54)[C@H](C)C3)C[C@H]2C)CN1 [Example 4, 1,14-bis((R)-4-(((2R,5R)-1-(2-(6-(4-fluorobenzyl)-3,3-dimethyl-5-oxo-2,3,4,5-tetrahydro-1H-pyrrolo[3,2-b]pyridin-1-yl)-2-oxoethyl)-5-methylpiperazin-2-yl)methyl)-3-methylpiperazin-1-yl)tetradecane-1,14-dione] |  |  | ++++ (FS>10,000) |
| C[C@@H]1CN(CC(=O)N2CC(C)(C)c3[nH]c(=O)c(Cc4ccc(F)cc4)cc32)[C@@H](CN2CCO[C@H](COCCCCCCOC[C@@H]3CN(C[C@H]4CN[C@H](C)CN4CC(=O)N4CC(C)(C)c5[nH]c(=O)c(Cc6ccc(F)cc6)cc54)CCO3)C2)CN1 [Example 64, 1,1′-(2,2′-((3R,3′R,6R,6′R)-(((2S,2'S)-((hexane-1,6-diylbis(oxy))bis(methylene))bis(morpholine-2,4-diyl))bis(methylene))bis(3-methylpiperazine-6,1-diyl))bis(acetyl))bis(6-(4-fluorobenzyl)-3,3-dimethyl-1,2,3,4-tetrahydro-5H-pyrrolo[3,2-b]pyridin-5-one)] | ++++ (FS>10,000) | ++++ (FS>10,000) |  |
| C[C@@H]1CN(CC(=O)N2CC(C)(C)c3[nH]c(=O)c(Cc4ccc(F)cc4)cc32)[C@@H](CN2CCN(C(=O)c3cccc(C(=O)N4CCN(C[C@H]5CN[C@H](C)CN5CC(=O)N5CC(C)(C)c6[nH]c(=O)c(Cc7ccc(F)cc7)cc65)[C@H](C)C4)c3)C[C@H]2C)CN1 [Example 9, 1,1′-(2,2′-((3R,3′R,6R,6′R)-(((2R,2′R)-isophthaloylbis(2-methylpiperazine-4,1-diyl))bis(methylene))bis(3-methylpiperazine-6,1-diyl))bis(acetyl))bis(6-(4-fluorobenzyl)-3,3-dimethyl-1,2,3,4-tetrahydro-5H-pyrrolo[3,2-b]pyridin-5-one)] | ++ (1,000>FS>100) | ++ (1,000>FS>100) | +++ (10,000>FS>1,000) |
| C[C@@H]1CN(CC(=O)N2CC(C)(C)c3[nH]c(=O)c(Cc4ccc(F)cc4)cc32)[C@@H](CN2CCO[C@H](COCC#CC#CCOC[C@@H]3CN(C[C@H]4CN[C@H](C)CN4CC(=O)N4CC(C)(C)c5[nH]c(=O)c(Cc6ccc(F)cc6)cc54)CCO3)C2)CN1 [Example 63, 1,1′-(2,2′-((3R,3′R,6R,6′R)-(((2S,2'S)-((hexa-2,4-diyne-1,6-diylbis(oxy))bis(methylene))bis(morpholine-2,4-diyl))bis(methylene))bis(3-methylpiperazine-6,1-diyl))bis(acetyl))bis(6-(4-fluorobenzyl)-3,3-dimethyl-1,2,3,4-tetrahydro-5H-pyrrolo[3,2-b]pyridin-5-one)] | +++ (10,000>FS>1,000) | +++ (10,000>FS>1,000) | ++++ (FS>10,000) |
| C[C@@H]1CN(CC(=O)N2CC(C)(C)c3[nH]c(=O)c(Cc4ccc(F)cc4)cc32)[C@@H](CN2CCN(C(=O)CN(C)CC(=O)N3CCN(C[C@H]4CN[C@H](C)CN4CC(=O)N4CC(C)(C)c5[nH]c(=O)c(Cc6ccc(F)cc6)cc54)[C@H](C)C3)C[C@H]2C)CN1 [Example 15, 1,1′-(2,2′-((3R,3′R,6R,6′R)-(((2R,2′R)-(2,2′-(methylazanediyl)bis(acetyl))bis(2-methylpiperazine-4,1-diyl))bis(methylene))bis(3-methylpiperazine-6,1-diyl))bis(acetyl))bis(6-(4-fluorobenzyl)-3,3-dimethyl-1,2,3,4-tetrahydro-5H-pyrrolo[3,2-b]pyridin-5-one)] | ++ (1,000>FS>100) | +++ (10,000>FS>1,000) | ++++ (FS>10,000) |
| C[C@@H]1CN(CC(=O)N2CC(C)(C)c3[nH]c(=O)c(Cc4ccc(F)cc4)cc32)[C@@H](CN2CCN(C(=O)Cc3cccc(CC(=O)N4CCN(C[C@H]5CN[C@H](C)CN5CC(=O)N5CC(C)(C)c6[nH]c(=O)c(Cc7ccc(F)cc7)cc65)[C@H](C)C4)c3)C[C@H]2C)CN1 [Example 10, 1,1′-(2,2′-((3R,3′R,6R,6′R)-(((2R,2′R)-(2,2′-(1,3-phenylene)bis(acetyl))bis(2-methylpiperazine-4,1-diyl))bis(methylene))bis(3-methylpiperazine-6,1-diyl))bis(acetyl))bis(6-(4-fluorobenzyl)-3,3-dimethyl-1,2,3,4-tetrahydro-5H-pyrrolo[3,2-b]pyridin-5-one)] | ++ (1,000>FS>100) | ++ (1,000>FS>100) | ++ (1,000>FS>100) |
| C[C@@H]1CN(CC(=O)N2CC(C)(C)c3[nH]c(=O)c(Cc4ccc(F)cc4)cc32)[C@@H](CN2CCO[C@H](COc3ccccc3-c3ccccc3OC[C@@H]3CN(C[C@H]4CN[C@H](C)CN4CC(=O)N4CC(C)(C)c5[nH]c(=O)c(Cc6ccc(F)cc6)cc54)CCO3)C2)CN1 [Example 67, 1,1′-(2,2′-((3R,3′R,6R,6′R)-(((2S,2'S)—(([1,1′-biphenyl]-2,2′-diylbis(oxy))bis(methylene))bis(morpholine-2,4-diyl))bis(methylene))bis(3-methylpiperazine-6,1-diyl))bis(acetyl))bis(6-(4-fluorobenzyl)-3,3-dimethyl-1,2,3,4-tetrahydro-5H-pyrrolo[3,2-b]pyridin-5-one)] | +++ (10,000>FS>1,000) | +++ (10,000>FS>1,000) |  |
| C[C@@H]1CN(CC(=O)N2CC(C)(C)c3[nH]c(=O)c(Cc4ccc(F)cc4)cc32)[C@@H](CN2CCN(C(=O)COc3ccc(OCC(=O)N4CCN(C[C@H]5CN[C@H](C)CN5CC(=O)N5CC(C)(C)c6[nH]c(=O)c(Cc7ccc(F)cc7)cc65)[C@H](C)C4)cc3)C[C@H]2C)CN1 [Example 13, 1,1′-(2,2′-((3R,3′R,6R,6′R)-(((2R,2′R)-(2,2′-(1,4-phenylenebis(oxy))bis(acetyl))bis(2-methylpiperazine-4,1-diyl))bis(methylene))bis(3-methylpiperazine-6,1-diyl))bis(acetyl))bis(6-(4-fluorobenzyl)-3,3-dimethyl-1,2,3,4-tetrahydro-5H-pyrrolo[3,2-b]pyridin-5-one)] | ++ (1,000>FS>100) | ++ (1,000>FS>100) |  |
| C[C@@H]1CN(CC(=O)N2CC(C)(C)c3[nH]c(=O)c(Cc4ccc(F)cc4)cc32)[C@@H](CN2CCN(CCCCCCCCCCCCN3CCN(C[C@H]4CN[C@H](C)CN4CC(=O)N4CC(C)(C)c5[nH]c(=O)c(Cc6ccc(F)cc6)cc54)[C@H](C)C3)C[C@H]2C)CN1 [Example 26, 1,1′-(2,2′-((3R,3′R,6R,6′R)-(((2R,2′R)-dodecane-1,12-diylbis(2-methylpiperazine-4,1-diyl))bis(methylene))bis(3-methylpiperazine-6,1-diyl))bis(acetyl))bis(6-(4-fluorobenzyl)-3,3-dimethyl-1,2,3,4-tetrahydro-5H-pyrrolo[3,2-b]pyridin-5-one)] | ++ (1,000>FS>100) | +++ (10,000>FS>1,000) |  |
